Measured values from a collection of fitness landscapes (doi:10.1126/science.1257360).
Some of the results follow.

B1: PhoQ; a variant is named by its letters at X, in order, P23837 (parent)
chain: MKKLLRLFFPLSLRVRFLLATAAVVLVLSLAYGMVALIGYSVSFDKTTFRLLRGESNLFYTLAKWENNKLHVELPENIDKQSPTMTLIYDENGQLLWAQRDVPWLMKMIQPDWLKSNGFHEIEADVNDTSLLLSGDHSIQQQLQEVREDDDDAEMTHSVAVNVYPATSRMPKLTIVVVDTIPVELKSSYMVWSWFIYVLSANLLLVIPLLWVAAWWSLRPIEALAKEVRELEEHNRELLNPATTRELTSLVRNLNRLLKSERERYDKYRTTLTDLTHSLKTPLXXLQXXLRSLRSEKMSVSDAEPVMLEQISRISQQIGYYLHRASMRGGTLLSRELHPVAPLLDNLTSALNKVYQRKGVNISLDISPEISFVGEQNDFVEVMGNVLDNACKYCLEFVEISARQTDEHLYIVVEDDGPGIPLSKREVIFDRGQRVDTLRPGQGVGLAVAREITEQYEGKIVAGESMLGGARMEVIFGRQHSAPKDE

Variants of: B1
Assay: enrichment ratio after two sorts for PhoP signalling (ratio (wild type AVST 3.29)); higher = more functional
Details: with PhoP (E. coli)

IWGM and TDYS cannot be ordered by enrichment ratio: at most 0.25 for the first, at most 0.25 for the second.

VKKE and VIQL cannot be ordered by enrichment ratio: at most 0.25 for the first, at most 0.25 for the second.

HKMN and HFDG cannot be ordered by enrichment ratio: at most 0.25 for the first, at most 0.25 for the second.

First: DKLL
Second: KDAL
The enrichment ratio of the first is higher: 0.415 for the first, at most 0.25 for the second.

DCYF and PVIG cannot be ordered by enrichment ratio: at most 0.25 for the first, at most 0.25 for the second.

First: HYDD
Second: SAAK
The enrichment ratio of the first is lower: at most 0.25 for the first, 5.94 for the second.

ASHG and DPAD cannot be ordered by enrichment ratio: at most 0.25 for the first, at most 0.25 for the second.

GKYE and WRVD cannot be ordered by enrichment ratio: at most 0.25 for the first, at most 0.25 for the second.

Compared with LINL, CSNF is higher in enrichment ratio: at most 0.25 for the first, 10.8 for the second.

QQRM and MDRW cannot be ordered by enrichment ratio: at most 0.25 for the first, at most 0.25 for the second.

FDCW and PTWF cannot be ordered by enrichment ratio: at most 0.25 for the first, at most 0.25 for the second.

PWCG and HEGY cannot be ordered by enrichment ratio: at most 0.25 for the first, at most 0.25 for the second.

First: WYTI
Second: QESL
The enrichment ratio of the first is lower: at most 0.25 for the first, 0.967 for the second.

First: LEWV
Second: AGKM
The enrichment ratio of the first is higher: 11.9 for the first, at most 0.25 for the second.

First: RLEG
Second: ASTF
The enrichment ratio of the first is lower: at most 0.25 for the first, 11.8 for the second.

VQKW and QLLD cannot be ordered by enrichment ratio: at most 0.25 for the first, at most 0.25 for the second.

QPHI and KALW cannot be ordered by enrichment ratio: at most 0.25 for the first, at most 0.25 for the second.

First: GNAC
Second: FCNF
The enrichment ratio of the first is higher: 12.5 for the first, at most 0.25 for the second.

DMKV and LYRW cannot be ordered by enrichment ratio: at most 0.25 for the first, at most 0.25 for the second.

EDYE and SIED cannot be ordered by enrichment ratio: at most 0.25 for the first, at most 0.25 for the second.

MTRA and GWPY cannot be ordered by enrichment ratio: at most 0.25 for the first, at most 0.25 for the second.

KSEC and AQYE cannot be ordered by enrichment ratio: at most 0.25 for the first, at most 0.25 for the second.

ETGH and LWDY cannot be ordered by enrichment ratio: at most 0.25 for the first, at most 0.25 for the second.

QCYT and IRPY cannot be ordered by enrichment ratio: at most 0.25 for the first, at most 0.25 for the second.

MLFG and HYSN cannot be ordered by enrichment ratio: at most 0.25 for the first, at most 0.25 for the second.

YQVY and VVVI cannot be ordered by enrichment ratio: at most 0.25 for the first, at most 0.25 for the second.

LHQI and QTRS cannot be ordered by enrichment ratio: at most 0.25 for the first, at most 0.25 for the second.

First: AKDV
Second: TQHI
The enrichment ratio of the first is lower: at most 0.25 for the first, 3.97 for the second.

LNID and RHHR cannot be ordered by enrichment ratio: at most 0.25 for the first, at most 0.25 for the second.

YKGC and SVNI cannot be ordered by enrichment ratio: at most 0.25 for the first, at most 0.25 for the second.

FKIY and NKHH cannot be ordered by enrichment ratio: at most 0.25 for the first, at most 0.25 for the second.

TPLC and IWQL cannot be ordered by enrichment ratio: at most 0.25 for the first, at most 0.25 for the second.

First: DRYF
Second: SHNL
The enrichment ratio of the first is lower: at most 0.25 for the first, 7.36 for the second.

TDYV and FNIS cannot be ordered by enrichment ratio: at most 0.25 for the first, at most 0.25 for the second.

QFAN and EGKF cannot be ordered by enrichment ratio: at most 0.25 for the first, at most 0.25 for the second.

DNNL and SPVH cannot be ordered by enrichment ratio: at most 0.25 for the first, at most 0.25 for the second.

GSKK and LESE cannot be ordered by enrichment ratio: at most 0.25 for the first, at most 0.25 for the second.

First: YSSF
Second: AYIL
The enrichment ratio of the first is lower: at most 0.25 for the first, 1.01 for the second.

FIIR and VLAK cannot be ordered by enrichment ratio: at most 0.25 for the first, at most 0.25 for the second.

Compared with AVAL, GDVC is lower in enrichment ratio: 11 for the first, 7.92 for the second.

First: KMCV
Second: TMHS
The enrichment ratio of the first is lower: at most 0.25 for the first, 1.08 for the second.

NEPG and KICW cannot be ordered by enrichment ratio: at most 0.25 for the first, at most 0.25 for the second.

LWEI and IVPN cannot be ordered by enrichment ratio: at most 0.25 for the first, at most 0.25 for the second.

DNTW and LPIT cannot be ordered by enrichment ratio: at most 0.25 for the first, at most 0.25 for the second.

Compared with TGLF, PMFW is lower in enrichment ratio: 9.7 for the first, at most 0.25 for the second.

SFYY and PAQY cannot be ordered by enrichment ratio: at most 0.25 for the first, at most 0.25 for the second.

LAEL and RWDH cannot be ordered by enrichment ratio: at most 0.25 for the first, at most 0.25 for the second.

THIK and EAQG cannot be ordered by enrichment ratio: at most 0.25 for the first, at most 0.25 for the second.

For KNDS, the enrichment ratio was at most 0.25.
